# Experimental data taken from PubChem BioAssay AID1508623 (National Center for Advancing Translational Sciences (NCATS), 2021).
# The whole screen tested about 48,000 compounds, of which about 450 (0.94%) were called active. Roughly 19% stayed inconclusive and do not appear here. Calls come from the whole dose curve; as a rule, active = well fitted inhibition curve with a large enough effect; inconclusive = small, poorly fitted or top-dose-only effect; inactive = no such curve, though single readings can be large or run the other way. This is one part of the list.
# Experiment: Primary qHTS for Identification of Small Molecule Inhibitors of Huntingtin Promoter Activity; note: nearly all actives have a fitted effect of over 50% in size
# Details: HEK293 HTT promoter firefly luciferase reporter (activity 0% = vehicle and -100% = no light), 24 h; series mostly up to 57.5 µM; activity change, negative = inhibition: at the top concentration
# Summary of the method: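 Firefly luciferase signal from promoter-reporter HEK293 cells was scaled between vehicle (0%) and zero RLU (-100%). Compounds were tested at final concentrations of up to 57.5 uM over 24 h at 37 degrees C. PTC124 at 50 uM final served as control inhibitor.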
# Potency is the fitted concentration of half-maximal effect.
SMILES,"activity change, negative = inhibition",Potency
Cc1nnc(NS(=O)(=O)c2ccc(N)cc2)s1,inactive,
O=C(Cn1nc(-c2ccc(Cl)cc2)ccc1=O)NCc1ccccc1Cl,inactive: -8.48%,
COc1cccc(N2CCN(C3C(=O)c4ccccc4N3C(C)=O)CC2)c1 (centres undefined),inactive: -22.5%,
COc1cccc(C2C(C(=O)Nc3ccc(C)cc3C)=C(C)Nc3c(C(=O)Nc4cccc(C)c4)cnn32)c1OC (centres undefined),inactive: -10.5%,
COc1ccc(N2CCN(C(=O)c3ccc(-c4nc(COc5ccccc5)c(C)o4)cc3)CC2)cc1,inactive: -7.75%,
Cc1cccc(OCC(=O)N(Cc2sccc2C)C2CCS(=O)(=O)C2)c1 (centres undefined),inactive: -14.6%,
CCCNC(=O)C1CCC(Cn2c(=O)c3sccc3n(CC(=O)N3CCC(C)CC3)c2=O)CC1 (centres undefined),inactive: 1.22%,
Cc1ccccc1OCCn1c(CCNC(=O)C(C)(C)C)nc2ccccc21,inactive: 3.58%,
CC1=C(c2ccc(C)c(C)c2)S(=O)(=O)N=C1N1CCC(C(=O)NCc2ccc(C)o2)CC1,inactive: -24.3%,
CC(C)(C)OC(=O)N1CCC(c2c(C(=O)N3CCc4ccccc4C3)cnn2-c2ccc(F)cc2)CC1,inactive: -18.8%,
CC(NC(=O)CCCn1c(=O)c2cccn2c2cccnc21)c1ccccc1 (centres undefined),inactive: 1.03%,
CCOc1ccc(-c2nc(C#N)c(NCCCOC)o2)cc1,inactive: -15.1%,
Cc1coc2c(C)c3oc(=O)c(CCC(=O)NCCc4ccc(Cl)cc4)c(C)c3cc12,inactive: -12.4%,
COCCCNC(=O)c1c(NC(=O)Cc2coc3cc(C)cc(C)c23)sc2c1CCCC2,inactive: -20.5%,
CCc1ccc(CNC(=O)CSc2cc(=O)n(C)c3ccc(Cl)cc23)cc1,inactive: -17.3%,
CCN(CCCNC(=O)c1cc2c(=O)n(CC)c3ccccc3c2s1)c1ccccc1,inactive: -10.6%,
CC(NC(=O)CCSCc1ccccc1F)c1ccccc1 (centres undefined),inactive: 30.8%,
O=C(c1ccc2c(c1)N(Cc1ccccc1F)C(=O)c1ccccc1S2(=O)=O)N1CCCC1,inactive: -7.48%,
COc1ccc(C(=O)N(Cc2cc(OC)c(OC)c(OC)c2)CC2CCCO2)cc1 (centres undefined),inactive: -1.85%,
Cc1cc(F)ccc1NCc1ccccc1-c1nnc(-c2ccccc2Cl)o1,inactive: 19.4%,

SMILES,"activity change, negative = inhibition",Potency
Cc1ccc(-c2noc(-c3nnn(CC(=O)Nc4cc(C)cc(C)c4)c3N)n2)cc1,inactive: 0.557%,
O=C(CSc1nccn1Cc1ccc(F)cc1)Nc1ccc2c(c1)OCCO2,inactive: 14.5%,
CCCNC(=O)CSc1nc2nc(C)c(Cc3ccccc3Cl)c(C)n2n1,inactive: -18%,
COc1ccc(CCCc2nnc(SCC(=O)Nc3ccc(C)cc3C)o2)cc1,inactive: -19.8%,
CCN(CC)S(=O)(=O)c1cc(-c2onc(C)c2C)ccc1OC,inactive: -17.4%,
CCc1ccc(C(=O)c2cn(CC(=O)Nc3ccc(OC)cc3OC)c3ccc(CC)cc3c2=O)cc1,inactive: -25.5%,
COc1cccc(C(=O)Nc2cccc(C(=O)OCc3cc(=O)n4nc(C(C)C)sc4n3)c2)c1,inactive: 18.8%,
Cc1ccc(N(C)C(=O)c2cnc(N3CCOCC3)c3ccccc23)cc1C,inactive: -8.96%,
CCOc1ccc(-c2nc(SCC(=O)NCCOC)c(-c3ccc(OC)c(OC)c3)[nH]2)cc1,inactive: -3.82%,
CSc1nc2sc3c(c2c(=O)n1-c1ccc(F)c(Cl)c1)CCN(C(C)=O)C3,inactive: -6.62%,
Cc1cc(C)cc(NC(=O)CSc2nc(-c3cccc(Cl)c3)nc3c2Cc2c(CO)cnc(C)c2O3)c1,inactive: -5.68%,
CCOC(=O)NC1(C(F)(F)F)NC(=O)N(c2ccc(C)c(C)c2)C1=O (centres undefined),inactive: -15.7%,
O=C(CSC1=Nc2ccccc2C2=NC(Cc3ccccc3)C(=O)N12)Nc1ccccc1F (centres undefined),inactive: -27.3%,
Cc1cc(C)cc(OCC(=O)Nc2ccc(S(=O)(=O)Nc3onc(C)c3C)cc2)c1,inactive: -4.76%,
COc1ccc(-n2nc(C(=O)Nc3cccc(C(F)(F)F)c3)c3c4ccccc4n(C)c3c2=O)cc1,inactive: -16.8%,
Cc1nn(CC(=O)NCc2ccccc2Cl)c(=O)c2nn(-c3ccccc3)c(C)c12,inactive: 3.76%,
CCN1CCC[C@H]1CNC(=O)c1c(OC)ccc(Br)c1OC,inactive: 2.35%,
Cc1ccccc1NC(=O)CSC1=Nc2ccccc2C2=NC(CCC(=O)NCc3ccccc3)C(=O)N12 (centres undefined),inactive: -17.3%,
Cc1nc(CC(=O)Nc2ccc(N(C)C)cc2)cs1,inactive: 28%,
COc1ccccc1CNC(=O)CN1C(=O)COc2ccc(S(=O)(=O)N3CCCCC3)cc21,inactive: -9.77%,

SMILES,"activity change, negative = inhibition",Potency
O=S(=O)(NCc1cccc(Br)c1)c1ccc(-c2cc(C(F)(F)F)on2)s1,inactive: -10.7%,
Cc1cc(C)cc(N2C(=O)N(CC(=O)c3ccc(Br)cc3)c3ccccc3S2(=O)=O)c1,inactive: -23.3%,
COC(=O)c1sccc1S(=O)(=O)N(CC(=O)NCc1ccc(C)cc1)c1ccc(Cl)cc1,inactive: -6.73%,
CCN(CC)C(=O)c1sc2c(c1C)c(=O)n(-c1ccc(Cl)c(Cl)c1)c(=O)n2Cc1cc(=O)n2c(C)cccc2n1,inactive: 0%,
CCCCn1cc(S(=O)(=O)c2ccc(OC)cc2)c(=O)c2cc(F)c(N3CCCC3)cc21,inactive: 12.5%,
Cc1ccc(-c2nc(C)c(CCNS(=O)(=O)c3ccccc3F)s2)cc1,inactive: -12.4%,
CN1C(=O)C(C)(C)c2cc(S(=O)(=O)NCc3ccc(C(=O)Nc4ccc(Cl)cc4)cc3)ccc21,,active: 17.8 µM
Cc1cccc(NC(=O)N2CCC(CN3CCc4ccccc4C3)CC2)c1C,inactive: -16.5%,
CCOc1ccc(NC(=O)Cn2cc(C(=O)c3ccc(C)c(C)c3)c(=O)c3cc4c(cc32)OCCO4)cc1,inactive: -7.78%,
CCOC(=O)c1cccc(NC(=O)CN2C(=O)CC(C)(C)Sc3ccccc32)c1,inactive: -27.2%,
CCOC(=O)c1cc(S(=O)(=O)N2CCN(c3ccc(OC)cc3)CC2)[nH]n1,inactive: -30.8%,
COc1ccc(CCNC(=O)CCCn2c(=O)c3ccccc3n(Cc3ccccc3C)c2=O)cc1OC,inactive: 0.305%,
Cc1ccc(-n2ncc(C(=O)NCCN3CCc4ccccc4C3)c2C2CCN(C(=O)OC(C)(C)C)CC2)cc1,inactive: -28.4%,
Cc1cccc(C)c1OCc1nc2c3cnn(-c4cccc(F)c4)c3ncn2n1,inactive: -2.21%,
Cc1ccc(Nc2c(-c3ccc(N4CCOCC4)cc3)nc3ncccn23)cc1,inactive: 5.78%,
Cc1ccc(C(=O)Nc2c(C(=O)NCc3ccc(Cl)cc3)sc3nc(C)cc(C)c23)cc1,inactive: -11.7%,
CCN1CCN(c2cc3c(cc2F)c(=O)c(C(=O)O)cn3C2CC2)CC1,inactive: -1.2%,
COc1cccc(NC(=O)CSc2nc3ccccc3nc2N2CCOCC2)c1,inactive: -29%,
CN(CC(=O)Nc1cccc(C(F)(F)F)c1)S(=O)(=O)c1ccc2[nH]c3c(c2c1)CCCC3,inactive: -19.4%,
